{"source": "PubChem BioAssay AID504832", "about": "(National Center for Advancing Translational Sciences (NCATS), 2011)", "note": "“And” between values parts separate entries of the source, which are not always exact repeats. Equal values may be shown once. The whole screen tested about 310,000 compounds, of which about 18,000 (5.8%) were called active. This list was built around the results that the source calls inconclusive (neither active nor inactive); the mix of calls is not that of the screen. The call rests on the fitted dose curve; in most records, active means well fitted inhibition curve with a large enough effect; inconclusive means small, poorly fitted or top-dose-only effect, or another doubt; inactive means no such curve, though single readings can be large or run the other way. Where the call is inconclusive, the potency comes from a doubtful curve fit. On the % scale 0 is the no-effect control and ±100 the full control effect; potency means the concentration at half of the fitted maximal effect; tags describe the fitted curve by direction and shape.", "data": [{"assay": "Primary qHTS for delayed death inhibitors of the malarial parasite plastid, 48 hour incubation", "details": "P. falciparum luciferase growth in erythrocytes; series mostly up to 28.7 µM; activity change, negative = inhibition: at the top concentration", "outline": "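A one-generation exposure of luciferase-tagged malaria parasites in RPMI 1640/Albumax erythrocyte culture, 37 C and 5% CO2. Inhibition is inferred from decreased luminescence after adding detection reagent.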", "values": [{"smiles": "Cn1ncc2c(O/N=C(\\N)c3ccc(C(F)(F)F)cc3)ncnc21", "Potency": "inconclusive: 9.28 µM [inhibitor, partial curve]"}, {"smiles": "COc1cccc(C(=O)NCCS(=O)(=O)NCc2cccs2)c1", "activity change, negative = inhibition": "inactive: 14.4%"}, {"smiles": "CCOc1ccc(CCNC(=O)COC(=O)c2cccc(S(=O)(=O)N3CCCCC3)c2)cc1OCC", "activity change, negative = inhibition": "inactive: -9.9%"}, {"smiles": "COc1ccc(CN2CCN(C(=O)C3CC(=O)N(C4CCCCCC4)C3)CC2)c(OC)c1OC", "note": "(configuration not stated)", "Potency": "inconclusive: 20.8 µM [inhibitor, partial curve, poor fit]"}, {"smiles": "COc1ccc(NC(=O)CCCCn2c(=O)[nH]c3ccccc3c2=O)cc1", "Potency": "inconclusive: 20.8 µM [inhibitor, partial curve, poor fit]"}, {"smiles": "CNC(=S)NC1CC2CCCC(C1)N2Cc1ccco1", "note": "(configuration not stated)", "activity change, negative = inhibition": "inactive: 12.5%"}, {"smiles": "Nc1ccc(C(=O)N2CCN(S(=O)(=O)c3ccc4c(c3)OCCO4)CC2)cc1[N+](=O)[O-]", "activity change, negative = inhibition": "inactive: -18.6%"}, {"smiles": "Cc1c(C(=O)Oc2cccc3cccnc23)cccc1[N+](=O)[O-]", "Potency": "inconclusive: 18.5 µM [inhibitor, single point]"}, {"smiles": "COc1ccc(C(=O)C2CCCN(Cc3ccccn3)C2)c(OC)c1", "note": "(configuration not stated)", "Potency": "inconclusive: 4.15 µM [inhibitor, full curve]"}, {"smiles": "CC1O[C@@H](O[C@H](C)CC[C@@H](C)O[C@H]2OC(C)[C@@H](O)C[C@H]2O)C(O)C[C@H]1O", "note": "(some centres not stated)", "activity change, negative = inhibition": "inactive: -18.9%"}, {"smiles": "Cc1cccc(N2CCN(C(=O)c3cc4cc(F)ccc4[nH]3)CC2)c1C", "Potency": "active: 1.65 µM"}, {"smiles": "Cc1cc(C(=O)CSc2ncnc3ccccc23)c(C)n1C1CC1", "Potency": "inconclusive: 18.5 µM [inhibitor, single point]"}, {"smiles": "O=C(NCC(c1cccs1)N1CCOCC1)c1cc(-c2ccccn2)nc2ccccc12", "note": "(configuration not stated)", "Potency": "inconclusive: 0.828 µM [inhibitor, partial curve, poor fit]"}, {"smiles": "COc1ccc(/C=C/C(=O)C(C)(C)C)cc1OC", "activity change, negative = inhibition": "inactive: -10.6%"}, {"smiles": "O=[N+]([O-])c1cccc(/C=N/Nc2nc(C(Cl)(Cl)Cl)nc3ccccc23)c1", "Potency": "active: 1.04 µM"}, {"smiles": "CCOC(=O)c1c(NC(=O)CSc2nnc(C)s2)sc2c1CCC(CC)C2", "note": "(configuration not stated)", "Potency": "inconclusive: 10.4 µM [inhibitor, single point]"}, {"smiles": "CCN1CCN(C(=O)c2ccc(CS(=O)(=O)Cc3ccccc3C)o2)CC1", "activity change, negative = inhibition": "inactive: 30.7%"}, {"smiles": "Cc1ccc([N+](=O)[O-])cc1NC(=O)C[n+]1ccccc1", "activity change, negative = inhibition": "inactive: -5.31%"}, {"smiles": "Cn1c(-c2ccc3c(c2)OCO3)cnc1NCc1ccccc1Cl", "activity change, negative = inhibition": "inactive: -4.29%"}, {"smiles": "Cc1ccc(NC(=S)NNC(=O)CSc2nc3ccccc3c(=O)n2-c2ccc(C)cc2)cc1", "Potency": "inconclusive: 14.7 µM [inhibitor, single point]"}, {"smiles": "CCN(CC)C(=O)CC(c1cc(OC)c(OC)c(OC)c1)c1c(O)cc(OC)cc1OC", "note": "(configuration not stated)", "Potency": "inconclusive: 10.4 µM [inhibitor, single point]"}, {"smiles": "CCc1ccc(C(=O)NN(C(=O)c2ccc(CC)cc2)C(C)(C)C)cc1", "activity change, negative = inhibition": "inactive: -21.6%"}, {"smiles": "CN1CCC(OC(=O)COc2ccc(C(C)(C)C)cc2)CC1", "activity change, negative = inhibition": "inactive: 10.9%"}, {"smiles": "COc1ccc(-c2nnc(NC(=O)c3cc(C)on3)s2)cc1", "Potency": "inconclusive: 10.4 µM [inhibitor, single point]"}, {"smiles": "CCN(c1ccccc1)S(=O)(=O)c1ccc(C(C(=O)OC)C(=O)OC)c([N+](=O)[O-])c1", "activity change, negative = inhibition": "inactive: -24.2% [at 5.75 µM]"}, {"smiles": "Brc1c(NC2=NCCN2)ccc2nccnc12", "Potency": "inconclusive: 19 µM [inhibitor, single point]"}, {"smiles": "Cc1ccc(S(=O)(=O)CCC(=O)Nc2ccc(F)cc2)cc1", "Potency": "inconclusive: 18.5 µM [inhibitor, single point]"}, {"smiles": "Cc1cc(NC(=O)COc2coc(CN3CCN(c4ccccc4)CC3)cc2=O)no1", "Potency": "inconclusive: 18.5 µM [inhibitor, partial curve, poor fit]"}, {"smiles": "C=CCOc1c(Cl)cc(C2NC(=O)NC(C)=C2C(=O)OC)cc1Cl", "note": "(configuration not stated)", "Potency": "active: 9.28 µM"}, {"smiles": "Cc1[nH]c2ccccc2c1SCCNC(=O)c1ccc(S(=O)(=O)N2CCCC2)cc1", "Potency": "inconclusive: 11.7 µM [inhibitor, single point]"}, {"smiles": "CCN(CC)CCCN=C1N[C@@H](c2ccccc2)C(C(=O)OC)=C(C)N1CC", "Potency": "inconclusive: 73.8 nM [inhibitor, full curve, poor fit] and inconclusive: 11.7 µM [inhibitor, single point]"}, {"smiles": "CCC1=Nc2cc(C(=O)N3CCC4(CC3)OCCO4)ccc2Sc2ccc(C)cc21", "Potency": "active: 10.4 µM"}, {"smiles": "O=C(c1cc(-c2ccncc2)nc2ccc(Cl)cc12)N1CCN(Cc2ccc3c(c2)OCO3)CC1", "Potency": "inconclusive: 9.28 µM [inhibitor, partial curve]"}, {"smiles": "O=C(c1ccc(S(=O)(=O)N2CCCCCC2)cc1)N1CCC(CN2C(=O)c3cccc4cccc(c34)C2=O)CC1", "Potency": "inconclusive: 18.5 µM [inhibitor, single point]"}, {"smiles": "CCOc1cc(/C=C2\\C(=N)N3N=C(CC)SC3=NC2=O)ccc1OCCOc1ccc(NC(C)=O)cc1", "Potency": "inconclusive: 10.4 µM [inhibitor, partial curve]"}, {"smiles": "COc1ccc(C)cc1NC(=O)CN1CCN(S(=O)(=O)c2ccc(F)cc2)CC1", "Potency": "inconclusive: 0.329 µM [inhibitor, full curve]"}, {"smiles": "Cc1cc(NC(=O)CSc2nc3cc(Cl)ccc3c(=O)n2C(C)C)no1", "activity change, negative = inhibition": "inactive: 0.22%"}, {"smiles": "O=C1OC(c2ccc(F)cc2)=N/C1=C\\C=C/c1ccccc1", "activity change, negative = inhibition": "inactive: 6.38%"}, {"smiles": "Cc1ccc(S(=O)(=O)NC2c3cccc4cccc(c34)C2Sc2nncn2C)cc1", "note": "(configuration not stated)", "Potency": "inconclusive: 11.7 µM [inhibitor, partial curve, poor fit]"}, {"smiles": "Fc1ccc(C2=CC(c3ccco3)n3nnnc3N2)cc1", "note": "(configuration not stated)", "activity change, negative = inhibition": "inactive: 7.75%"}, {"smiles": "COc1ccccc1Nc1nn2c(=O)c3ccc(C(=O)N4CCCC(C)C4)cc3nc2s1", "note": "(configuration not stated)", "Potency": "active: 8.28 µM"}, {"smiles": "COc1ccc(CN2CCN(C(=O)CCC(=O)Nc3nnc(CC(C)C)s3)CC2)cc1F", "Potency": "inconclusive: 10.4 µM [inhibitor, partial curve, poor fit]"}, {"smiles": "CCCCCCCCNC(=S)NCCN1CCCCC1", "Potency": "active: 8.28 µM"}, {"smiles": "Cc1nc2ccccc2n1Cc1ccccc1Br", "Potency": "inconclusive: 14.7 µM [inhibitor, partial curve, poor fit]"}, {"smiles": "CC(C)c1ccc(NC(=O)C2CCCN(S(=O)(=O)c3ccc4c(c3)C(C)(C)C(=O)N4C)C2)cc1", "note": "(configuration not stated)", "Potency": "inconclusive: 0.165 µM [inhibitor, partial curve]"}, {"smiles": "CCOC(=O)c1ccc(N=c2sc(C(=O)OC)cc(=O)n2CCCN2CCOCC2)cc1", "Potency": "inconclusive: 16.5 µM [inhibitor, partial curve, poor fit]"}, {"smiles": "CCCCC(=O)Nc1ccc(S(=O)(=O)N2CCCCC2c2cccnc2)cc1", "note": "(configuration not stated)", "Potency": "inconclusive: 13.1 µM [inhibitor, single point]"}, {"smiles": "Cc1ccc(N=C2NC(=O)/C(=C/c3cccn3C)S2)cc1", "activity change, negative = inhibition": "inactive: 95.2%"}, {"smiles": "CCc1ccc2[nH]c(=O)c(CN(Cc3ccc4c(c3)OCO4)Cc3nnnn3C3CCCC3)cc2c1", "Potency": "inconclusive: 2.08 µM [inhibitor, partial curve, poor fit]"}, {"smiles": "O=C(C[n+]1cc(-c2ccccc2)n2c1CCC2)c1cccs1", "Potency": "inconclusive: 3.7 µM [inhibitor, full curve]"}, {"smiles": "O=C(/C=C/c1ccc(S(=O)(=O)NCc2ccco2)cc1)NCc1ccccc1Cl", "Potency": "inconclusive: 18.5 µM [inhibitor, partial curve, poor fit]"}, {"smiles": "Cc1c(S(=O)(=O)c2ccccn2)c(N)n(Cc2ccccc2Cl)c1C", "Potency": "inconclusive: 11.7 µM [inhibitor, single point]"}, {"smiles": "CC(C)(C)c1ccc(S(=O)(=O)NNC(=O)c2cc3ccccc3[nH]2)cc1", "activity change, negative = inhibition": "inactive: 68.9%"}, {"smiles": "CCC(C)NC(=O)c1ccc(CN2CCc3ccccc3C2)cc1", "note": "(configuration not stated)", "activity change, negative = inhibition": "inactive: -2.18%"}, {"smiles": "Cc1c(C(=O)Nc2ccc3nc(N4CCOCC4)sc3c2)oc2ccccc12", "Potency": "active: 10.4 µM"}, {"smiles": "CS(=O)(=O)Nc1ccc(C(=O)NCCSCc2ccccc2)cc1", "Potency": "inconclusive: 2.62 µM [inhibitor, full curve]"}, {"smiles": "COc1ccc(CNCc2ccncc2)cc1OC", "Potency": "inconclusive: 0.0928 µM [inhibitor, full curve, poor fit]"}, {"smiles": "COc1cccc(C2C3=C(Nc4[nH]n(-c5ccccc5)c(=O)c42)c2ccccc2C3=O)c1", "note": "(configuration not stated)", "Potency": "inconclusive: 8.28 µM [inhibitor, partial curve, poor fit]"}, {"smiles": "Cn1cc(C=O)c2cc(S(=O)(=O)N3CCOCC3)ccc21", "activity change, negative = inhibition": "inactive: -7.15%"}, {"smiles": "CCOc1ccc(Nc2nc(Cc3nnc(SCC(=O)NCc4ccco4)n3CC)cs2)cc1", "Potency": "inconclusive: 14.7 µM [inhibitor, single point]"}, {"smiles": "COc1ccc(S(=O)(=O)N(C)CC(=O)Nc2ccc(F)cc2)cc1", "Potency": "inconclusive: 18.5 µM [inhibitor, single point]"}, {"smiles": "Cc1ccc(S(=O)(=O)N2[C@@H](c3ccccc3F)C(C(=O)O)=CC[C@H]2c2ccc(Cl)cc2)cc1", "Potency": "inconclusive: 18.5 µM [inhibitor, single point]"}, {"smiles": "Cc1cccc(CCNC(=O)CC2C(=O)NCCN2Cc2ccccc2C)n1", "note": "(configuration not stated)", "activity change, negative = inhibition": "inactive: -53.9%"}, {"smiles": "CN(C)S(=O)(=O)c1ccc(Cl)c(NC(=O)CSc2nc3ccccc3c(=O)n2CCCN2CCOCC2)c1", "Potency": "inconclusive: 13.1 µM [inhibitor, single point]"}, {"smiles": "CCCCCn1c(=O)c(C(=O)NCc2ccccc2Cl)c(O)c2ccccc21", "Potency": "active: 7.38 µM"}, {"smiles": "O=C(CN1C(=O)NC(Cc2c[nH]c3ccccc23)C1=O)Nc1cccc(S(=O)(=O)N2CCOCC2)c1", "note": "(configuration not stated)", "Potency": "inconclusive: 18.5 µM [inhibitor, single point]"}, {"smiles": "COc1ccc2c(c1)C(=O)N1[C@H]3c4cc(Br)ccc4OC[C@@H]3[C@H](c3ccccc3)[C@]1(C)C(=O)N2", "Potency": "inconclusive: 16.5 µM [inhibitor, single point]"}]}]}
